In the supplement of paper PMC8728848:
The other results are listed elsewhere or left out.

Key:
Assay in all cases: glycan array binding signal (z-score within array); higher = stronger binding
Conditions in all cases: glycan notation: IUPAC condensed, linker removed
[1] = biological target: Neu5Ac(a2-3)Gal(b1-4)[Fuc(a1-3)]GlcNAc(b1-3)Gal
Summary of the method: (§1)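 Negative Z-scores can be read as non-binding. The Z-score is calculated within each array and then averaged across arrays of one protein sequence at different concentrations or buffers and across linkers. Arrays, 3228 in all, were curated from the Consortium for Functional Glycomics database and kept only where the protein sequence was available.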

[2] = biological target: Neu5Ac(a2-3)Gal(b1-4)[Fuc(a1-3)]GlcNAc(b1-3)Gal(b1-4)GlcNAc
Summary of the method: as §1

[3] = biological target: Neu5Ac(a2-3)Gal(b1-4)[Fuc(a1-3)]GlcNAc(b1-3)Gal(b1-4)[Fuc(a1-3)]GlcNAc(b1-3)Gal(b1-4)[Fuc(a1-3)]GlcNAc
Summary of the method: as §1

[4] = biological target: Neu5Ac(a2-3)Gal(b1-4)[Fuc(a1-3)]GlcNAc(b1-3)GalNAc
Summary of the method: as §1

[5] = biological target: Neu5Ac(a2-3)Gal(b1-4)[Fuc(a1-3)]GlcNAc(b1-6)[Gal(b1-3)]GalNAc
Summary of the method: as §1

[6] = biological target: Neu5Ac(a2-3)Gal(b1-4)[Fuc(a1-3)]GlcNAc(b1-6)[Neu5Ac(a2-3)Gal(b1-3)]GalNAc
Summary of the method: as §1

[7] = biological target: Neu5Ac(a2-3)Gal(b1-4)[Fuc(a1-3)]GlcNAc6S
Summary of the method: as §1

[8] = biological target: Neu5Ac(a2-3)Gal6S(b1-4)GlcNAc
Summary of the method: as §1

[9] = biological target: Neu5Ac(a2-3)Gal6S(b1-4)[Fuc(a1-3)]GlcNAc
Summary of the method: as §1

[10] = biological target: Neu5Ac(a2-3)GalNAc
Summary of the method: as §1

[11] = biological target: Neu5Ac(a2-3)GalNAc(b1-4)GlcNAc
Summary of the method: as §1

[12] = biological target: Neu5Ac(a2-3)[GalNAc(b1-4)]Gal(b1-4)Glc
Summary of the method: as §1

[13] = biological target: Neu5Ac(a2-3)[GalNAc(b1-4)]Gal(b1-4)GlcNAc
Summary of the method: as §1

[14] = biological target: Neu5Ac(a2-3)[GalNAc(b1-4)]Gal(b1-4)GlcNAc(b1-3)GalNAc
Summary of the method: as §1

[15] = biological target: Neu5Ac(a2-3)[Neu5Ac(a2-6)]GalNAc
Summary of the method: as §1

[16] = biological target: Neu5Ac(a2-6)Gal
Summary of the method: as §1

[17] = biological target: Neu5Ac(a2-6)Gal(b1-3)GlcNAc(b1-3)[Gal(b1-4)GlcNAc(b1-6)]Gal(b1-4)Glc
Summary of the method: as §1

[18] = biological target: Neu5Ac(a2-6)Gal(b1-4)Glc
Summary of the method: as §1

[19] = biological target: Neu5Ac(a2-6)Gal(b1-4)GlcNAc
Summary of the method: as §1

[20] = biological target: Neu5Ac(a2-6)Gal(b1-4)GlcNAc(b1-2)Man
Summary of the method: as §1

[21] = biological target: Neu5Ac(a2-6)Gal(b1-4)GlcNAc(b1-2)Man(a1-3)Man(b1-4)GlcNAc(b1-4)GlcNAc
Summary of the method: as §1

[22] = biological target: Neu5Ac(a2-6)Gal(b1-4)GlcNAc(b1-2)Man(a1-3)[Gal(b1-4)GlcNAc(b1-2)Man(a1-6)]Man(b1-4)GlcNAc(b1-4)GlcNAc
Summary of the method: as §1

[23] = biological target: Neu5Ac(a2-6)Gal(b1-4)GlcNAc(b1-2)Man(a1-3)[GlcNAc(b1-2)Man(a1-6)]Man(b1-4)GlcNAc(b1-4)GlcNAc
Summary of the method: as §1

[24] = biological target: Neu5Ac(a2-6)Gal(b1-4)GlcNAc(b1-2)Man(a1-3)[GlcNAc(b1-2)Man(b1-4)GlcNAc(b1-2)Man(a1-6)]Man(b1-4)GlcNAc(b1-4)GlcNAc
Summary of the method: as §1

[25] = biological target: Neu5Ac(a2-6)Gal(b1-4)GlcNAc(b1-2)Man(a1-3)[GlcNAc(b1-4)][Neu5Ac(a2-6)Gal(b1-4)GlcNAc(b1-2)Man(a1-6)]Man(b1-4)GlcNAc(b1-4)GlcNAc
Summary of the method: as §1

[26] = biological target: Neu5Ac(a2-6)Gal(b1-4)GlcNAc(b1-2)Man(a1-3)[Man(a1-6)]Man(b1-4)GlcNAc(b1-4)GlcNAc
Summary of the method: as §1

[27] = biological target: Neu5Ac(a2-6)Gal(b1-4)GlcNAc(b1-2)Man(a1-3)[Neu5Ac(a2-3)Gal(b1-4)GlcNAc(b1-2)Man(a1-6)]Man(b1-4)GlcNAc(b1-4)GlcNAc
Summary of the method: as §1

[28] = biological target: Neu5Ac(a2-6)Gal(b1-4)GlcNAc(b1-2)Man(a1-3)[Neu5Ac(a2-6)Gal(b1-4)GlcNAc(b1-2)Man(a1-6)]Man(b1-4)GlcNAc(b1-4)GlcNAc
Summary of the method: as §1

[29] = biological target: Neu5Ac(a2-6)Gal(b1-4)GlcNAc(b1-2)Man(a1-3)[Neu5Ac(a2-6)Gal(b1-4)GlcNAc(b1-2)Man(a1-6)]Man(b1-4)GlcNAc(b1-4)[Fuc(a1-6)]GlcNAc
Summary of the method: as §1

[30] = biological target: Neu5Ac(a2-6)Gal(b1-4)GlcNAc(b1-2)Man(a1-6)Man(b1-4)GlcNAc(b1-4)GlcNAc
Summary of the method: as §1

[31] = biological target: Neu5Ac(a2-6)Gal(b1-4)GlcNAc(b1-2)Man(a1-6)[Gal(b1-4)GlcNAc(b1-2)Man(a1-3)]Man(b1-4)GlcNAc(b1-4)GlcNAc
Summary of the method: as §1

[32] = biological target: Neu5Ac(a2-6)Gal(b1-4)GlcNAc(b1-2)Man(a1-6)[GlcNAc(b1-2)Man(a1-3)]Man(b1-4)GlcNAc(b1-4)GlcNAc
Summary of the method: as §1

[33] = biological target: Neu5Ac(a2-6)Gal(b1-4)GlcNAc(b1-2)Man(a1-6)[Man(a1-3)]Man(b1-4)GlcNAc(b1-4)GlcNAc
Summary of the method: as §1

[34] = biological target: Neu5Ac(a2-6)Gal(b1-4)GlcNAc(b1-2)[Neu5Ac(a2-6)Gal(b1-4)GlcNAc(b1-4)]Man(a1-3)[GlcNAc(b1-4)][Neu5Ac(a2-6)Gal(b1-4)GlcNAc(b1-2)[Neu5Ac(a2-6)Gal(b1-4)GlcNAc(b1-6)]Man(a1-6)]Man(b1-4)GlcNAc(b1-4)GlcNAc
Summary of the method: as §1

[35] = biological target: Neu5Ac(a2-6)Gal(b1-4)GlcNAc(b1-2)[Neu5Ac(a2-6)Gal(b1-4)GlcNAc(b1-4)]Man(a1-3)[GlcNAc(b1-4)][Neu5Ac(a2-6)Gal(b1-4)GlcNAc(b1-4)Man(a1-6)]Man(b1-4)GlcNAc(b1-4)GlcNAc
Summary of the method: as §1

[36] = biological target: Neu5Ac(a2-6)Gal(b1-4)GlcNAc(b1-2)[Neu5Ac(a2-6)Gal(b1-4)GlcNAc(b1-6)]Man(a1-6)[Neu5Ac(a2-6)Gal(b1-4)GlcNAc(b1-2)Man(a1-3)][GlcNAc(b1-4)]Man(b1-4)GlcNAc(b1-4)GlcNAc
Summary of the method: as §1

[37] = biological target: Neu5Ac(a2-6)Gal(b1-4)GlcNAc(b1-3)Gal(b1-3)GlcNAc
Summary of the method: as §1

[38] = biological target: Neu5Ac(a2-6)Gal(b1-4)GlcNAc(b1-3)Gal(b1-4)GlcNAc
Summary of the method: as §1

[39] = biological target: Neu5Ac(a2-6)Gal(b1-4)GlcNAc(b1-3)Gal(b1-4)GlcNAc(b1-2)Man(a1-3)[Neu5Ac(a2-6)Gal(b1-4)GlcNAc(b1-3)Gal(b1-4)GlcNAc(b1-2)Man(a1-6)]GalNAc
Summary of the method: as §1

[40] = biological target: Neu5Ac(a2-6)Gal(b1-4)GlcNAc(b1-3)Gal(b1-4)GlcNAc(b1-3)Gal(b1-4)GlcNAc
Summary of the method: as §1

[41] = biological target: Neu5Ac(a2-6)Gal(b1-4)GlcNAc(b1-3)Gal(b1-4)GlcNAc(b1-3)Gal(b1-4)GlcNAc(b1-2)Man(a1-3)[Neu5Ac(a2-6)Gal(b1-4)GlcNAc(b1-3)Gal(b1-4)GlcNAc(b1-3)Gal(b1-4)GlcNAc(b1-2)Man(a1-6)]GalNAc
Summary of the method: as §1

[42] = biological target: Neu5Ac(a2-6)Gal(b1-4)GlcNAc(b1-3)Gal(b1-4)GlcNAc(b1-3)GalNAc
Summary of the method: as §1

[43] = biological target: Neu5Ac(a2-6)Gal(b1-4)GlcNAc(b1-3)Gal(b1-4)GlcNAc(b1-3)[Neu5Ac(a2-6)Gal(b1-4)GlcNAc(b1-3)Gal(b1-4)GlcNAc(b1-6)]GalNAc
Summary of the method: as §1

B1: OrysaEULS2 (Oryza sativa) (protein)
chain: MVYCRANPNYAMTARNGAVVLAPANPKDEYQHWIKDMRWSTSIKDEEGYPAFALVNKATGQAIKHSLGQSHPVRLVPYNPEVMDESVLWTESRDVGNGFRCIRMVNNIYLNFDAFHGDKYHGGVRDGTDIVLWKWCEGDNQRWKIQPYYILEQKLISEEDLNSAVDHHHHHH
glycan array binding signal (z-score) [1]: -0.179 | glycan array binding signal (z-score) [2]: -0.212 | glycan array binding signal (z-score) [3]: -0.208 | glycan array binding signal (z-score) [4]: -0.145 | glycan array binding signal (z-score) [5]: -0.145 | glycan array binding signal (z-score) [6]: -0.25 | glycan array binding signal (z-score) [7]: -0.223 | glycan array binding signal (z-score) [8]: -0.173 | glycan array binding signal (z-score) [9]: -0.23 | glycan array binding signal (z-score) [10]: -0.202 | glycan array binding signal (z-score) [11]: -0.206 | glycan array binding signal (z-score) [12]: -0.19 | glycan array binding signal (z-score) [13]: -0.207 | glycan array binding signal (z-score) [14]: -0.173 | glycan array binding signal (z-score) [15]: -0.222 | glycan array binding signal (z-score) [16]: -0.192 | glycan array binding signal (z-score) [17]: -0.21 | glycan array binding signal (z-score) [18]: -0.21 | glycan array binding signal (z-score) [19]: -0.209 | glycan array binding signal (z-score) [20]: -0.246 | glycan array binding signal (z-score) [21]: 0.791 | glycan array binding signal (z-score) [22]: 1.15 | glycan array binding signal (z-score) [23]: 0.716 | glycan array binding signal (z-score) [24]: 0.366 | glycan array binding signal (z-score) [25]: -0.247 | glycan array binding signal (z-score) [26]: 0.999 | glycan array binding signal (z-score) [27]: 1.08 | glycan array binding signal (z-score) [28]: 0.546 | glycan array binding signal (z-score) [29]: -0.124 | glycan array binding signal (z-score) [30]: -0.207 | glycan array binding signal (z-score) [31]: 0.266 | glycan array binding signal (z-score) [32]: 1 | glycan array binding signal (z-score) [33]: 3.61 | glycan array binding signal (z-score) [34]: -0.238 | glycan array binding signal (z-score) [35]: -0.244 | glycan array binding signal (z-score) [36]: -0.231 | glycan array binding signal (z-score) [37]: -0.176 | glycan array binding signal (z-score) [38]: -0.207 | glycan array binding signal (z-score) [39]: 0.476 | glycan array binding signal (z-score) [40]: -0.206 | glycan array binding signal (z-score) [41]: 0.386 | glycan array binding signal (z-score) [42]: -0.254 | glycan array binding signal (z-score) [43]: -0.226
